Measurements reported in the supplement of paper PMC3694890.
± gives the uncertainty stated by the source. The list shows a part of the results. A small y stands for phosphotyrosine.

biological target: GRB2 (endogenous complexes from cell lysate), P62993; test: GRB2 complex binding differential signal (pY peptide minus Ala control peptide) (fluorescence intensity units); higher = stronger GRB2 complex binding; settings: MCF7
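Further: phosphopeptide probes on the chip at 1–4 µM, lysate proteins bound in 20 mM Tris pH 7.0 buffer with 140 mM NaCl, 1% Triton X-100 and 5% glycerol.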

Binder	GRB2 complex binding differential signal
yATQLQ [STAT5A_90/A1]	1550 ± 1600
ySKYYT [STAT5B_679/A1]	676 ± 350
yMDQAP [STAT5B_725/A1]	1390 ± 3300
yAVPPP [BCAR1_410/A1]	5290 ± 3000
yNMYPQ [STAT5B_740/A1]	-16400 ± 1800
yPQNPD [STAT5B_743/A1]	485 ± 430
ySFPKP [SYK_296/A1]	5060 ± 760
yEPELA [SYK_323/A1]	1090 ± 370
yESPYA [SYK_348/A1]	6870 ± 690
yADPEE [SYK_352/A1]	2760 ± 250
yYKAQT [SYK_525/A1]	3660 ± 560
yKAQTH [SYK_526/A1]	2340 ± 540
yYKFSS [SYK_546/A1]	365 ± 300
yTEGAE [TBB6_Y106/A1]	765 ± 360
ySRVQY [BCAR3_212/A1]	1920 ± 540
yTSSSG [TEC_519/A1]	3120 ± 920
yAQVQR [TENC1_483/A1]	2510 ± 370

same assay, conditions: MCF10A

Binder	GRB2 complex binding differential signal
yATQLQ [STAT5A_90/A1]	1430 ± 360
ySKYYT [STAT5B_679/A1]	340 ± 260
yMDQAP [STAT5B_725/A1]	1450 ± 680
yAVPPP [BCAR1_410/A1]	3430 ± 590
yNMYPQ [STAT5B_740/A1]	-4080 ± 960
yPQNPD [STAT5B_743/A1]	946 ± 610
ySFPKP [SYK_296/A1]	1610 ± 350
yEPELA [SYK_323/A1]	643 ± 270
yESPYA [SYK_348/A1]	4030 ± 1000
yADPEE [SYK_352/A1]	1850 ± 540
yYKAQT [SYK_525/A1]	1580 ± 750
yKAQTH [SYK_526/A1]	3810 ± 390
yYKFSS [SYK_546/A1]	-19.3 ± 190
yTEGAE [TBB6_Y106/A1]	247 ± 880
ySRVQY [BCAR3_212/A1]	493 ± 300
yTSSSG [TEC_519/A1]	2620 ± 820
yAQVQR [TENC1_483/A1]	1480 ± 350

same assay, conditions: MDA-MB-231

Binder	GRB2 complex binding differential signal
yATQLQ [STAT5A_90/A1]	1720 ± 790
ySKYYT [STAT5B_679/A1]	792 ± 300
yMDQAP [STAT5B_725/A1]	854 ± 320
yAVPPP [BCAR1_410/A1]	2210 ± 850
yNMYPQ [STAT5B_740/A1]	249 ± 480
yPQNPD [STAT5B_743/A1]	514 ± 360
ySFPKP [SYK_296/A1]	2130 ± 660
yEPELA [SYK_323/A1]	1160 ± 360
yESPYA [SYK_348/A1]	5070 ± 670
yADPEE [SYK_352/A1]	459 ± 440
yYKAQT [SYK_525/A1]	1650 ± 380
yKAQTH [SYK_526/A1]	649 ± 440
yYKFSS [SYK_546/A1]	768 ± 280
yTEGAE [TBB6_Y106/A1]	514 ± 290
ySRVQY [BCAR3_212/A1]	749 ± 390
yTSSSG [TEC_519/A1]	1270 ± 310
yAQVQR [TENC1_483/A1]	465 ± 440

same assay, conditions: T47D

Binder	GRB2 complex binding differential signal
yATQLQ [STAT5A_90/A1]	1000 ± 1400
ySKYYT [STAT5B_679/A1]	1740 ± 1000
yMDQAP [STAT5B_725/A1]	414 ± 1200
yAVPPP [BCAR1_410/A1]	2320 ± 990
yNMYPQ [STAT5B_740/A1]	-1200 ± 1400
yPQNPD [STAT5B_743/A1]	802 ± 1200
ySFPKP [SYK_296/A1]	1610 ± 1100
yEPELA [SYK_323/A1]	715 ± 1100
yESPYA [SYK_348/A1]	3470 ± 1400
yYKAQT [SYK_525/A1]	1960 ± 1300
yKAQTH [SYK_526/A1]	958 ± 890
yYKFSS [SYK_546/A1]	1280 ± 850
yTEGAE [TBB6_Y106/A1]	83 ± 1100
ySRVQY [BCAR3_212/A1]	1370 ± 1100
yTSSSG [TEC_519/A1]	1470 ± 930
yAQVQR [TENC1_483/A1]	206 ± 850
